Measurements from the supplement of paper PMC10126150.
Values marked as one replicate rest on one cluster of the flow cell; about a third of the high ones do not repeat.

Test system: ATP
Test: switch fluorescence ratio, 500 uM ATP over buffer (Cy3 cluster intensity, sum of 5 cycles each) (fold (ratio)); higher = stronger signal-on switching upon ATP binding; sequences stand for … in TCGTCGGCAGCGTCAGATGTGTATAAGAGACAGTTTTTTTTTTTTTTTTTTTTTTTTT…TC
Details: aptamer strand: ATP DNA aptamer (quencher-CACCTGGGGGAGTATTGCGGAGGAAGG + anchor), 100 nM annealed; ATP concentration: 500 uM; one replicate
Outline: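 Cy3-labelled switching-strand clusters on a modified Illumina MiSeq flow-cell were annealed to 100 nM quencher-labelled ATP aptamer, imaged in selection buffer, then imaged after 15 min with 500 uM ATP at 22 °C. Five buffer/ATP cycles ran, with NaOH stripping and re-annealing between them. The fluorescence ratio is summed target-cycle over summed buffer-cycle Cy3 intensity per cluster, averaged per switch-domain sequence. Clusters outside 100-1000 RFU were excluded.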
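Also: ATP exposure 15 min at 22 °C before imaging.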

| Sequence | switch fluorescence ratio |
| --- | --- |
| GGTGTCATAA | 0.981 |
| GGCTAACAAT | 1.01 |
| TCGTCGGTCG | 0.958 |
| CCCGGCTCTG | 1.02 |
| TGACTTTGAG | 1.01 |
| AATATAACTT | 1.04 |
| TTCACACAGC | 1.09 |
| GAAAGGCTGG | 0.987 |
| GGGTTCGAGT | 1.01 |
| AGGAGACTCT | 0.986 |
| GATCATAAA | 0.991 |
| TATGGGAGTC | 0.974 |
| CAAACGTCT | 0.993 |
| GTTGCTTGTG | 0.993 |
| ATGTCAAGTC | 1.04 |
| AGTTTCGAGC | 1.02 |
| CTTGAGCGAT | 1.52 |
| GCATAATCAC | 1.15 |
| GCATCTGTCT | 0.997 |
| TTGGTTGATG | 0.967 |
| TGAGCTTGTT | 1.14 |
| TATAGCATCA | 1.01 |
| TCGCCTAGGG | 1.03 |

| Sequence | switch fluorescence ratio |
| --- | --- |
| GATGCAGGG | 1.1 |
| TGCTTTGACT | 0.972 |
| ACTAGCATTC | 2.03 |
| GAGCTAGTGA | 1 |
| TGGGATCAAA | 1 |
| TATTTGGCAA | 2.36 |
| TGGACCCGAG | 1.02 |
| CAGTTGAC | 1.05 |
| AGGACCTTTT | 1.01 |
| AGAATAAGGG | 0.978 |
| GGACGAGCTA | 1.07 |
| ATTTGGGATT | 0.993 |
| GGTTTGGTCT | 0.952 |
| GTGGTGCCGC | 1.01 |
| GTGGTCGCAA | 1.01 |
| GAACGTATTT | 1.04 |
| CCCCAGACCA | 1.13 |
| GCGGCGCGGT | 1.03 |
| GGCACCTCGC | 1.03 |
| CGGTCTCGTT | 0.998 |
| TCCATCCTGG | 1.04 |
| CTCTCACTCA | 1.05 |
| GCCCGAATGT | 0.993 |

| Sequence | switch fluorescence ratio |
| --- | --- |
| AAGGGCGGCG | 0.981 |
| TCAGTCCAGA | 1.02 |
| GGAAAGGTTG | 0.977 |
| ATTACCCATA | 1.05 |
| AACTTATTCG | 1.01 |
| GGGCCTAT | 1.02 |
| TTTACGGCAT | 1.15 |
| GTTGCGCAGG | 1.04 |
| TGAGAGTGTA | 0.947 |
| ATAGGCCGAG | 0.955 |
| ATGGGCCTAT | 1.05 |
| ATTTTAACC | 0.961 |
| AGTGGTAGGA | 0.997 |
| TTAAACATT | 0.982 |
| ATGATAACCT | 1.49 |
| AAGAAATAAT | 1 |
| AGTGGAAAAC | 1.25 |
| TCATGTACCT | 1.29 |
| ATTAATGGT | 1.01 |
| GTAGCGAGGA | 1.12 |
| CTATTAATTG | 0.996 |
| TAAATTTCTG | 1.01 |
| GTCTCGTCAG | 0.995 |

| Sequence | switch fluorescence ratio |
| --- | --- |
| CGGTTCCAGC | 1.06 |
| GTGGATCAGA | 0.948 |
| TTTATCCATA | 1.02 |
| GGCACCGAGG | 1.05 |
| TCTGCACTGA | 1.03 |
| GCTTGCATAG | 1.03 |
| ATGGCGCGAC | 1 |
| TAGGGCTGCC | 1.01 |
| GAGTATAATG | 0.998 |
| TGAAGCGCGT | 1.02 |
| AAAGGTTCAG | 1.02 |
| ACAAACGCGG | 1.26 |
| CAAGATGTTC | 1.01 |
| ACCGATGGGC | 1.02 |
| AGACCGATG | 1.02 |
| CACGGATATG | 1.02 |
| TCGAAGGTCG | 0.953 |
| ACCAGCGACA | 0.991 |
| ATGGGTAACT | 0.947 |
| CATGAATTCT | 0.988 |
| TGAATACAG | 1.03 |
| AAGTATCGGT | 1.03 |
| GAATTTACAG | 1.02 |

| Sequence | switch fluorescence ratio |
| --- | --- |
| AGCTAATTAT | 1 |
| TGCATTTAGA | 0.984 |
| TCAAGAAATA | 1.02 |
| AGGACGCCCA | 1.06 |
| ATGGCCGCCA | 0.984 |
| ACAGATAGGT | 1.06 |
| GACAATTGGT | 1.02 |
| CTTCTCACCC | 1.03 |
| TTATCGGTAG | 0.998 |
| AAGGGGCTGC | 1.05 |
| TTGCTTTCTT | 1.04 |
| CGAGTTTCTA | 0.981 |
| CCCACCTGAG | 1.31 |
| CTGTTGAAGA | 0.956 |
| CTGGTGCAAG | 1.33 |
| CCAGCATGGT | 1.02 |
| CATCAGCGTC | 1.99 |
| TTTGGCTCCC | 1.05 |
| CCCCTCGGCG | 1.23 |
| TGAAAGGTAA | 1.02 |
| CCACGGGATC | 1.23 |
| CCCTTGGGCG | 1 |
| ACATCCACCT | 1.31 |

| Sequence | switch fluorescence ratio |
| --- | --- |
| CGTTCCTGTA | 1 |
| TAGACCTAAG | 1.04 |
| CGTGCATGCT | 1.01 |
| CCGGGGCGAA | 1.56 |
| TCGCTACCGT | 1.01 |
| CGTGGCCGGG | 1 |
| CCAAAACTCC | 1.87 |
| AACTTGCCTT | 1.08 |
| AGCGACTCCT | 1.49 |
| CGGTACCGCA | 1.03 |
| ACATCAAGAT | 1.03 |
| CGGCAGCCCG | 1.03 |
| GCGAGCCTCT | 0.993 |
| ACGGAGGTTT | 0.974 |
| TCTCACGCGT | 1.05 |
| AGACAGCTTA | 1.04 |
| TCTAAGTTG | 1.01 |
| ATGTACACCA | 1.09 |
| TCGGAAATA | 1 |
| TTGGTCAAAG | 1.03 |
| AGCGACGAGA | 1.01 |
| GCGCAAGGTC | 1.7 |
| CGAGGGTGA | 1.05 |

| Sequence | switch fluorescence ratio |
| --- | --- |
| CAGACTGCTA | 1.31 |
| TTGAGTTCGA | 0.988 |
| AGGTCCTG | 1.03 |
| TATATTTAAC | 1.01 |
| TCCTGCGACT | 1.23 |
| AGGGCGTGG | 1.02 |
| AGCAGCCTGA | 0.994 |
| CTGGCCCGT | 0.995 |
| CGTCGCAACT | 2.29 |
| ATGTGCTATA | 1.03 |
| GGACAGGCAA | 1.2 |
| TCCGGTTAAA | 1.05 |
| AATAACATAA | 1.01 |
| CACGCCCAG | 1.06 |
| CATCGCCGA | 1.06 |
| TGGGCTTGTG | 0.919 |
| CCGGATAGT | 1.11 |
| ATTATACCAT | 1 |
| CTAGGATTT | 1.01 |
| ACATGTGTTG | 1.03 |
